The results in this text go back to PubChem BioAssay AID463173 (ICCB-Longwood Screening Facility, Harvard Medical School, 2010).

Structures are written as SMILES. Out of some 52,000 compounds screened, about 4,300 (8.3%) were called active. No stated cut-off is given here; in the data, active means survival mostly below about 52% (no sharp cut-off); inactive means mostly above about 56%. This is one part of the list.

This experiment concerns DeltatarO mutant. Nature of the experiment: growth inhibition of S. aureus wild type versus tarO mutant, primary screen, teichoic acid synthesis inhibitors, RN4220, OD600 (AID 463173). The conditions noted are these: OD600, 18 h, stronger effect = lower value, screened at 18.75 µg/mL (by protocol).
Consider `COc1ccc(-n2c3c(c(=O)[nH]c2=O)C(NC(=O)c2ccccc2Cl)(C(F)(F)F)C(=O)N3)cc1` (configuration not stated), for which the survival was inactive: 55%. On to `COc1cccc(C(=O)NCc2ccc3c(c2)CCN3C(=O)c2ccncc2)c1`, for which the survival is inactive: 73%. As for `COc1ccc(-c2[nH]c(-c3cccc(OC)c3)nc2SCC(=O)Nc2ccc3c(c2)OCO3)cc1`, the figure is inactive: 55%. As for `COc1ccccc1-c1nc(SCC(=O)c2ccccc2)n[nH]1`, the figure is active: 53%. As for `Cc1cc(C)cc(OCC(=O)Nc2nc3c(s2)CC(C(C)(C)C)CC3)c1` (configuration not stated), the survival is inactive: 107%. Next, `CCOC(=O)CC(NC(=O)CCc1c(C)nc2c(c(C)nn2-c2ccc(C)c(C)c2)c1C)c1ccc(C)cc1` (configuration not stated): inactive: 105%; `Cc1cccc(-n2ncc(C(=O)N3CCN(C4CCCCC4)CC3)c2C2CCN(C(=O)OC(C)(C)C)CC2)c1`: inactive: 94%; `COc1ccc(OC)c2sc(NC(=O)c3ccc(S(=O)(=O)N4CCCC4)cc3)nc12`: inactive: 118%. As for `O=C(c1ccc(N2CCOCC2)cc1)c1cccs1`, the figure is inactive: 98%; as for `CCc1nnc(NC(=O)c2nc(S(=O)(=O)Cc3ccc(C)cc3)ncc2Cl)s1`, active: 42%; as for `Cc1cc(C)c(NC(=O)C(C)n2c(=O)c(C(F)(F)F)nc3ccccc32)c(C)c1` (configuration not stated), inactive: 95%. As for `COC(=O)c1ccc(CSc2nc(-c3ccco3)cc(C(F)(F)F)n2)o1`, the figure is inactive: 84%; as for `CCC(=O)N1CCc2cc(S(=O)(=O)NC(C(=O)NCCc3ccccc3)C(C)C)ccc21` (configuration not stated), inactive: 86%; as for `CCN(c1ccccc1)c1nnc(NC(=O)Nc2ccc(Br)cc2)s1`, inactive: 86%. With `Cn1cnc(S(=O)(=O)N2CCC(C(=O)NCc3ccccc3Cl)CC2)c1`, the survival was inactive: 118%.

As for `Cc1ccc(C(=O)CC2(O)C(=O)N(Cc3ccccc3F)c3ccccc32)cc1` (configuration not stated), the survival was inactive: 60%. Next, `COc1cccc(NC(=O)CSc2nc3ccc(NC(=O)c4cccs4)cc3s2)c1`: inactive: 65%; `Cc1ccc(NC(=O)Nc2nnc(N3CCCC3)s2)cc1`: inactive: 90%. For the compound `CC(=O)N1CCOc2cc(S(=O)(=O)NC(C)c3ccccc3)c(Cl)cc21` (configuration not stated), the survival is inactive: 80%.

As to `Cc1cccc(C(=O)Nc2sc3c(c2C(=O)N2CCCCC2)CCC(C)C3)c1` (configuration not stated), the survival is active: -6%.

Regarding `CCN(CC)CCNC(=O)c1c(C)oc2ncn(C)c(=O)c12`, the survival was inactive: 91%. As for `O=C(CCc1cn(Cc2ccc(F)cc2)c2ccccc12)NCCc1ccc(Cl)cc1`, the figure is inactive: 71%; as for `COc1ccc(NC(=O)C(c2ccc(C)cc2)N(C)C(=O)/C=C\c2ccc3c(c2)OCO3)cc1` (configuration not stated), inactive: 66%; as for `O=S(=O)(NCc1csc(-c2ccccc2)n1)c1cccc(F)c1`, inactive: 79%.

Consider `Cc1ccc(CN(Cc2ccco2)C(=O)COc2ccccc2C)cc1`, for which the survival is active: 40%. Next, `COc1cccc(C2=C(C(C)=O)Sc3nncn3N2C(C)=O)c1`: inactive: 102%; `CCOC(=O)c1ccc(NC(=O)CCc2c(C)nc3c(c(C)nn3-c3ccccc3)c2C)cc1`: inactive: 57%. Next, `CC(C)CNC(=O)c1cc2sccc2n1Cc1ccccc1`: inactive: 105%; `CC(C)C(=O)Nc1ccc(N2CCN(C(=O)c3ccccc3)CC2)cc1`: inactive: 101%; `CNS(=O)(=O)c1cn(CC(=O)N2CCN(c3ccccc3F)CC2)cc1S(=O)(=O)NC`: inactive: 71%. As for `CCOc1ccc(CCNc2ncnc3onc(-c4ccc(Cl)cc4)c23)cc1OCC`, the figure is inactive: 60%. Turning to `COCc1nc2cccnc2n1C1CCN(S(=O)(=O)N(C)C)CC1`, the survival is inactive: 93%.

For the compound `CCOC(=O)C1NC(=O)CC1c1ccccc1` (configuration not stated), the survival was inactive: 99%. Next, `CC(C)(C)c1ccc(Cn2c(Cc3ccccc3)nc3ccccc32)cc1`: active: 0%; `Cc1nn2c(=O)cc(CN(C)c3ccccc3)nc2s1`: inactive: 135%; `CCOC(=O)c1ccccc1NC(=O)CSc1ncc(CO)n1Cc1ccc(C)cc1`: inactive: 77%. `O=C(Cn1c(SCc2cccc(F)c2)nc2cccnc21)Nc1ccc(F)c(Cl)c1`: the survival was inactive: 77%.

`O=C(NCCO)c1ccc2c(c1)OCO2`: the survival was inactive: 82%. Next, `CC(=O)c1ccc(NC(=O)CCc2c(C)nc3c(c(C)nn3-c3ccc(C)cc3)c2C)cc1`: inactive: 59%; `COc1ccccc1NC(c1ccc(Cl)cc1)c1nnc(-c2cccc(F)c2)o1` (configuration not stated): inactive: 59%; `COc1cccc(-c2nn(C)c3sc(C(=O)NCc4cc(OC)ccc4OC)cc23)c1`: inactive: 68%. Next, `O=C(CN1CCN(Cc2ccc(F)cc2)C1=O)NCc1ccccc1Cl`: inactive: 83%.

For `C=CCn1c(N)cc(=O)nc1SCC(=O)NC(C)c1ccccc1` (configuration not stated), the survival is inactive: 95%.

For `O=C1CCCN1CN1CCN(CN2CCCC2=O)CC1`, the survival was inactive: 106%.

In the case of `COC(=O)c1ccccc1NC(=O)C1=CC(c2ccc(C)cc2)=NS(=O)(=O)N1C`, the survival is inactive: 65%. Consider `CN(C1CCCCC1)S(=O)(=O)c1ccc(S(=O)(=O)N(Cc2ccccn2)Cc2ccco2)cc1`, for which the survival is inactive: 68%. As for `O=C(CCS(=O)(=O)c1nc(-c2cccs2)cc(C(F)(F)F)n1)Nc1ccc(OC(F)(F)F)cc1`, the figure is inactive: 90%; as for `COc1ccc(-c2cn3c(n2)sc2cc(C(=O)Nc4ccc(C)c(C)c4)ccc23)cc1`, inactive: 64%; as for `Cc1cccc(N2CCN(C(=O)CCc3nnc4n(CC(C)C)c(=O)c5ccccc5n34)CC2)c1C`, inactive: 74%. Next, `O=C(Cc1ccccc1)N(Cc1cccnc1)c1nc2c(F)cc(F)cc2s1`: inactive: 65%. As for `CC(C)N(C=O)C1(C(=O)NC2CCCCC2)CCCCC1`, the figure is inactive: 93%; as for `CC(C)c1ccc(OCC(=O)NC(Cc2c[nH]c3ccccc23)C(=O)O)cc1` (configuration not stated), active: 42%. With `CCOC(=O)c1c(C)oc2ccc(N(C(=O)Oc3ccccc3)S(=O)(=O)c3ccc(CC)cc3)cc12`, the survival is inactive: 55%. As for `O=C(Nc1cc(Cl)cc(Cl)c1)c1ccc(F)c(S(=O)(=O)N2CCc3ccccc32)c1`, the figure is inactive: 74%; as for `Cc1cccc(OC(=O)CSc2nnc(CNC(=O)c3ccccc3)o2)c1C`, inactive: 75%; as for `CCc1ccccc1NC(=O)CN(Cc1ccccc1)S(=O)(=O)c1ccc(Br)cc1`, inactive: 62%. `COc1ccc(CNC(=O)c2ccc(N3CCCC3)c(NC(=O)NCc3ccc(C)cc3)c2)cc1`: the survival is inactive: 73%.
